Assay results taken from PubChem BioAssay AID1460 (National Center for Advancing Translational Sciences (NCATS), 2008).
About 5,800 (2.1%) of roughly 270,000 compounds were called active. Inconclusive means that the source gave no clear call. Such entries were picked first, then a sample of the others. The call rests on the fitted dose curve; in most records, active means well fitted inhibition curve with a large enough effect; inconclusive means small, poorly fitted or top-dose-only effect; inactive means flat fitted curve, though single readings scatter. Potencies beside an inconclusive call are fits to weak or partial responses and may not hold up.

Target: Microtubule-associated protein tau (Homo sapiens) (UniProt P10636)
Experiment: qHTS for Inhibitors of Tau Fibril Formation, Thioflavin T Binding; further: nearly all actives have a fitted effect of over 55% in size
Settings: recombinant tau K18 P301L, heparin-induced fibrillization, ThT fluorescence; series mostly up to 57.4 µM
Summary of the method: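 Using a mix of unlabeled (15 uM) and Alexa 594-labeled (0.24 uM) tau K18 P301L, heparin-triggered fibrillization over 6 hr at 37 C was scored by ThT fluorescence.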
On the % scale 0 is the no-effect control and ±100 the full control effect; potency means the concentration at half of the fitted maximal effect; tags describe the fitted curve by direction and shape.

UniProt P10636, sequence (P10636 whole entry, looked up): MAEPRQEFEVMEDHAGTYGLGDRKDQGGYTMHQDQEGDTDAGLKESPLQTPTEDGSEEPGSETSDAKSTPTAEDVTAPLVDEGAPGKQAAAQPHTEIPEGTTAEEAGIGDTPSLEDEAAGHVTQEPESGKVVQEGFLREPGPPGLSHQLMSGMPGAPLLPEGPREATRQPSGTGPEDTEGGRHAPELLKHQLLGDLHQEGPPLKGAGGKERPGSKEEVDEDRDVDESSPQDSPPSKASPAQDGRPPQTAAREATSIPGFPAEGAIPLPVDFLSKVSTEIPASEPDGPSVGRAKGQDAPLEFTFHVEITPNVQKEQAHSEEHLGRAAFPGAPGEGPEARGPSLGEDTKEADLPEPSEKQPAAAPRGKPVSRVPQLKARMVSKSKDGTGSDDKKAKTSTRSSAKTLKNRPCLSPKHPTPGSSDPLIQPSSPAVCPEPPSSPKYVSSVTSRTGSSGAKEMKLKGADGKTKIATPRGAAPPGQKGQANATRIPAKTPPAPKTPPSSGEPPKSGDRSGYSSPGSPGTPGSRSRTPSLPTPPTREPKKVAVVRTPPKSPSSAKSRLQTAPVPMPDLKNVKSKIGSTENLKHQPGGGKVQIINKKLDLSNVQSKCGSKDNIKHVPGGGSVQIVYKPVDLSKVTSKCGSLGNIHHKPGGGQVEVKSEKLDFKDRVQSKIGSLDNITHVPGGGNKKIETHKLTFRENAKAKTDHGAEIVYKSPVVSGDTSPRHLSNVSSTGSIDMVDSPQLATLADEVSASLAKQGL

Row | Compound | Potency | activity, negative = inhibition
1 | COc1ccc(OC2C(=O)N(c3ccc(F)cc3)C2c2ccc(OC)c(OC)c2)cc1 (stereo not given) | inactive | 
2 | COc1ccc(-c2oc3ncn4nc(-c5ccc(Cl)cc5)nc4c3c2-c2ccc(OC)cc2)cc1 | inactive | 
3 | O=c1oc2c(CN3CCN(CCO)CC3)c(O)ccc2cc1-c1ccccn1 | inconclusive: 39.8 µM [activator, single point] | 
4 | COc1cc2c(cc1OC)C(c1ccc(Cl)cc1)N(c1ccc(C)c(F)c1)C(=O)C2 (stereo not given) | inconclusive: 12.6 µM [inhibitor, partial curve] | 
5 | CN(C)c1ccc(P(=O)(OC2CCCCC2)C(O)c2ccncc2)cc1 (stereo not given) | inconclusive: 28.2 µM [inhibitor, partial curve, poor fit] | 
6 | O=C(NC1CCCCC1)c1ccc2c(c1)sc1nc(-c3ccccc3)cn12 | inactive | 
7 | CCOC(=O)c1ccc(CSc2nnc3cc(C)c4ccccc4n23)cc1 | inconclusive: 17.8 µM [inhibitor, single point] | 
8 | CCc1cc(-c2[nH]ncc2-c2nc3ccccc3n2C)c(O)cc1O | inconclusive: 6.31 µM [inhibitor, partial curve, poor fit] | 
9 | CC(=O)Nc1ccc(S(=O)(=O)Nc2nc3ccccc3nc2Nc2ccccc2)cc1 | inconclusive: 17.8 µM [inhibitor, partial curve] | 
10 | CCCn1c(Nc2nc3ccccc3n2C)nc2ccccc21 | inconclusive: 17.8 µM [inhibitor, partial curve] | 
11 | S=C(NC1CC1)N1CCc2ccccc2C1 | inactive | 
12 | CCc1cc(=O)oc2cc(OC(C)=O)cc(OC(C)=O)c12 | inconclusive: 11.2 µM [inhibitor, partial curve] | 
13 | CCN(CC)c1ccc(S(=O)(=O)N2CCOCC2)cc1NC(=O)CN1CCN(Cc2ccccc2)CC1 | inactive | 
14 | COc1ccc(OCC(=O)Nc2cc(-c3cccc(Cl)c3)nn2-c2ccccc2)cc1 | inactive | 
15 | COC(=O)Cc1[nH]nc2c1C1(C(=O)N(Cc3ccccc3)c3ccccc31)C(C#N)=C(N)O2 (stereo not given) | inactive | 
16 | CC(C)c1ccc(OCc2cc(=O)n3c4c(sc3n2)CCCC4)cc1 | inconclusive: 0.794 µM [inhibitor, full curve] | 
17 | Cc1cccc(NC(=O)CSc2nc3ccc(NC(=O)c4cccs4)cc3s2)c1 | inactive | 
18 | CCCOc1ccc(N2C(=O)CC(NCc3ccncc3)C2=O)cc1 (stereo not given) | inconclusive: 15.8 µM [inhibitor, partial curve, poor fit] | 
19 | COC(=O)NC(NC(=S)Nc1ccc([N+](=O)[O-])cc1)C(Cl)(Cl)Cl (stereo not given) | inactive | 
20 | O=C(C1CCN(c2ccc(N3CCOCC3)nn2)CC1)N1CCN(c2ccc(F)cc2)CC1 | inconclusive: 22.4 µM [inhibitor, partial curve] | 
21 | COc1ccc(C(=O)Nc2cc(-c3nn4c(C)nnc4s3)ccc2C)cc1 | inconclusive: 25.1 µM [inhibitor, single point] | 
22 | O=C1CC(N2CCN(c3ccccc3)CC2)C(=O)N1Cc1ccc(Cl)cc1 (stereo not given) | inconclusive: 11.2 µM [inhibitor, partial curve, poor fit] | 
23 | COc1cnc(-c2ccccc2)nc1Oc1cccc(C)c1 | inactive | 

Row | Compound | Potency | activity, negative = inhibition
24 | COCCNc1nc(-c2ccc(N(C)C)cc2)nc2ccccc12 | inconclusive: 15.8 µM [inhibitor, partial curve] | 
25 | Cc1ccc(S(=O)(=O)N2CCC(C(=O)OC(C)C(=O)NCc3ccc4c(c3)OCO4)CC2)cc1 (stereo not given) | inactive | 
26 | COc1ccc(-c2nc(SCC(=O)c3ccc(Br)cc3)n[nH]2)cc1 | inconclusive: 0.562 µM [inhibitor, full curve] | 
27 | Cc1ccccc1C(=O)Oc1ccc(-c2csnn2)cc1 | inconclusive: 2.82 µM [inhibitor, full curve] | 
28 | C=CCn1c(CNc2ccc(C)cc2)nnc1SCC(=O)N/N=C/c1ccc(O)cc1O | inconclusive: 11.2 µM [inhibitor, partial curve] | 
29 | COc1ccc(S(=O)(=O)N(CC(=O)Nc2ccc(OC)cc2OC)c2ccc(Cl)cc2)cc1 | inactive | 
30 | COc1cc(NC(=O)C2CCN(S(=O)(=O)c3c(C)noc3/C=C/c3cccs3)CC2)cc(OC)c1 | inactive | 
31 | O=C(Nc1ccc2oc(=O)ccc2c1)c1cc2ccccc2o1 | inactive | 
32 | COc1ccc(Nc2nc(-c3ccccc3)nc3ccccc23)c(OC)c1 | inconclusive: 25.1 µM [inhibitor, single point] | 
33 | C=CCn1c(SCc2c(C)noc2C)nc2ccccc2c1=O | inactive | 
34 | COc1ccc(N2CCN(c3ccc(N4C(=O)CC(C)C4=O)cc3[N+](=O)[O-])CC2)cc1 (stereo not given) | inconclusive: 14.1 µM [inhibitor, partial curve] | 
35 | Cc1ccc2c(c1)c(=O)c(C(=O)c1ccccc1)cn2Cc1ccccc1F | inconclusive: 31.6 µM [inhibitor, single point] | 
36 | N#Cc1cccc(NC(=O)C2CCN(c3cnccn3)CC2)c1 | inactive | 
37 | Cc1cc(N/C=C\C(=O)c2ccc(Cl)c(Cl)c2)no1 | inconclusive: 2.51 µM [inhibitor, full curve] | 
38 | COC(=O)c1ccc(C2C=C(c3ccc(Cl)cc3)Nc3nc4ccccc4n32)cc1 (stereo not given) | inconclusive: 35.5 µM [inhibitor, single point] | 
39 | COc1cccc(/C=N/NC(=O)Cn2cnc3c2c(=O)n(C)c(=O)n3C)c1 | inactive | 
40 | COCCOC(=O)C1=C(C)OC(N)=C(C#N)C1c1cc2cccc(C)c2nc1Cl (stereo not given) | inconclusive: 25.1 µM [inhibitor, single point] | 
41 | COc1ccc(O)c(N)c1 | active: 4.47 µM | 
42 | O=C(N/N=C/C(Br)=C/c1ccccc1)C(O)c1ccccc1 (stereo not given) | inactive | 
43 | CCOc1ccc(N=C2Sc3nc4ccc(C)cc4cc3CN2CCOC)cc1 | inconclusive: 28.2 µM [inhibitor, partial curve] | 
44 | COC(=O)C/C=C\[C@@H](C)[C@@H](/C=N\O[C@@H]1O[C@H](COC(C)=O)[C@@H](OC(C)=O)[C@H](OC(C)=O)[C@H]1OC(C)=O)NS(=O)(=O)c1ccc(C)cc1 |  | inactive: -7.95% [at 11.5 µM]
45 | O=C1/C(=C\Nc2ccccc2)CCN1c1ncccn1 | inconclusive: 17.8 µM [inhibitor, single point] | 
